# Measured values: the supplement of paper PMC3334620
# Whole data set: some 33,000 sequences, median “E-score (-0.5 to 0.5)” near -0.036, cut for the highest 2% near 0.37. The list shows a part of the results.
# Target: T1, Yer064c (UniProt P40041)
# T1 sequence: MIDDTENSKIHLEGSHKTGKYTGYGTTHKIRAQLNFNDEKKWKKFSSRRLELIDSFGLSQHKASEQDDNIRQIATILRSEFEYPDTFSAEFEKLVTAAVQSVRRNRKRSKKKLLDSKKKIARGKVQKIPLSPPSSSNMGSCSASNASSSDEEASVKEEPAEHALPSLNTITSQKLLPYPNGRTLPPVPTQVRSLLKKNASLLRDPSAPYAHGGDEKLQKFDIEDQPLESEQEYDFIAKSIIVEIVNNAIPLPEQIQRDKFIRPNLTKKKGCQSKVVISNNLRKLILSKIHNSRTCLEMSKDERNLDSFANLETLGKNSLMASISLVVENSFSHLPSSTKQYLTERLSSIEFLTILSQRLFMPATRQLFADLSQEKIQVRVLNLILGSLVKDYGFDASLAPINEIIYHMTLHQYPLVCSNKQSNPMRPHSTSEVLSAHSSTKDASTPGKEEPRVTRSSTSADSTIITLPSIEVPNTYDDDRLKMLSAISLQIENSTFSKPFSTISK
# Test: PBM E-score (8-mer binding enrichment) (E-score (-0.5 to 0.5)); higher = stronger / more preferred TF binding; most listed sequences are background and not binding sites
# Conditions: protein concentration: 200 nM; construct: GST-full length
# Procedure, shortened: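 Universal all-10-mer Agilent arrays, fresh or stripped once, were converted to double-stranded form by primer extension. GST-tagged yeast transcription factors from PURExpress in vitro transcription/translation, full-length or DNA-binding domain only, were applied at about 100-200 nM and detected with fluorescent anti-GST. After masliner normalisation, the Universal PBM Analysis Suite scored each ungapped eight-base word together with its reverse complement by E-score.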
row,Sequence,PBM E-score
1,ATAGACTG,0.119
2,AGCAGGAA,-0.0489
3,AAGGATCT,-0.163
4,CCGGAACG,-0.109
5,CTGTGATA,0.126
6,ATCCGAAT,0.0995
7,AGGCTGGG,-0.276
8,ACCTCTAA,-0.0252
9,CGATATTC,-0.241
10,AATACATG,-0.0609
11,TGTATTAA,0.188
12,ACGACCAG,-0.0471
13,CTGTGGTC,-0.159
14,AGCATTAA,0.0916
15,AAACCCCA,-0.136
16,ACGCGCGC,-0.058
17,CTATCAGA,0.0093
18,GAGTCAAA,0.461
19,AGCTAAGA,0.169
20,GCCGACCC,-0.245
21,ACTGTTGC,-0.0887
22,ACGTCATC,-0.276
23,CATTCTCG,-0.0917
24,CCATGGGC,0.127
25,CACATAAA,0.0766

row,Sequence,PBM E-score
1,ATTGATAC,0.137
2,CAACACTC,-0.122
3,GGTGTGAC,0.213
4,GCCGTGTA,-0.178
5,TAGTCAGA,0.457
6,CGCCCATA,-0.143
7,GTCGAGAC,0.166
8,TTGCCCAA,-0.165
9,CGAGCGAA,-0.137
10,CGTCGTAG,0.0225
11,CTGAACTA,0.05
12,AGTCCGTG,0.0556
13,CCTTGACC,-0.0498
14,GGCGAGAA,-0.0732
15,GAGGGTCC,-0.28
16,AACTCATG,0.256
17,CGTATGTA,0.0155
18,TACTCACA,0.367
19,ACGGCACG,-0.0992
20,AATTGCAG,-0.128
21,ACCCAGCC,-0.0554
22,CATGATCC,0.0741
23,GCGCCGAA,-0.0818
24,TAGTTAAA,0.149
25,GGCGGTCA,-0.212

row,Sequence,PBM E-score
1,AAAGCCGA,-0.14
2,CCTACCTA,0.00081
3,CCGTGGGA,-0.161
4,CAGAGCCC,-0.214
5,TGAATTCA,0.194
6,AGATGTTA,-0.241
7,AAAAAGTT,-0.00095
8,GGACATCA,-0.157
9,AGATATGA,0.281
10,CAGATACG,-0.232
11,AAACGCCT,-0.294
12,GATCGTGA,0.255
13,CCACGTCA,-0.181
14,CGCTCAGC,-0.0668
15,CGAGTGAA,-0.037
16,CGTCTGCA,-0.0909
17,GAAATGTA,-0.238
18,ATCTAGAC,0.116
19,CTCGAAGA,0.182
20,CATCTCAA,0.0358
21,GACTTCCA,0.341
22,GTCTGAGA,0.0446
23,AAATCTCA,0.0869
24,TGACCGCA,-0.0804
25,CAGAATAC,-0.014

row,Sequence,PBM E-score
1,CCCCGCAC,-0.193
2,AATGTAAC,0.0173
3,GGAGAGGA,-0.0819
4,AGCAAATC,0.105
5,GAGGGTTA,-0.0846
6,TAAATGTA,0.0886
7,CCAATCCG,-0.0952
8,AGGGTCAC,-0.266
9,ACGGAACA,-0.0123
10,CAAGCTTC,-0.201
11,ACCGGCTG,-0.104
12,CTTACTGC,0.0595
13,GTTATCAA,0.041
14,CATACCCC,0.0692
15,ACCGCGAA,-0.0355
16,GCGACGTA,-0.135
17,CCAATAAC,0.032
18,GCCCCTCA,-0.259
19,GGTCATAC,0.123
20,AACGTGAA,0.00711
21,CTTATGGA,-0.0524
22,ATCAGCGA,0.0822
23,ATCGATCG,-0.0738
24,ATGATGGA,0.0706
25,AATAGCTC,-0.109

row,Sequence,PBM E-score
1,CGACACGC,0.0272
2,CAGGCTGG,-0.284
3,CTAATCCC,-0.231
4,AAGCACAC,-0.201
5,CTATCGGA,-0.0498
6,ATCCCGGC,-0.168
7,AAAGCGCG,-0.121
8,AAGTCTGC,-0.106
9,GCAATATA,-0.0194
10,CTAGACCC,-0.196
11,ATTTCCGA,0.0799
12,TGTTTCAA,0.159
13,AACAAAGA,0.0853
14,AAACAGCA,-0.0503
15,CTGTGCGA,-0.133
16,CTGGAGTA,0.0648
17,CGTGAGTC,0.48
18,CGCCCATC,-0.148
19,GCTACGGA,-0.0699
20,CAACACGC,-0.0402
21,AGACTTCG,0.125
22,ACCCCCAA,-0.147
23,ACGCCTAA,0.0472
24,AGTTCTGC,-0.203
25,AAACCTCC,-0.265

row,Sequence,PBM E-score
1,ACTAATAA,0.302
2,CGCGTACG,0.0918
3,ACTCCGAT,0.127
4,ATGGGCTC,0.131
5,CGATCTAG,0.0702
6,AGACCTTG,-0.0519
7,AACTTCGC,-0.167
8,CTGCGCCA,-0.102
9,ATAATGAC,0.257
10,TGTCCGAA,0.0441
11,AGGTTGAG,0.109
12,AACCTCTA,-0.316
13,CTGTTTTC,-0.0359
14,ACAGGAGC,-0.159
15,CCAGCAGG,-0.207
16,GTGCGGTA,-0.151
17,AGTAGAGC,-0.187
18,AGCTCAAT,0.0257
19,CTTACTCA,0.373
20,AACTGGAG,-0.144
21,AACGTATC,-0.183
22,CCGGTACC,-0.324
23,ATAGAAAC,0.0311
24,AGGTCTGC,-0.172
25,AAGAGCTT,-0.105

row,Sequence,PBM E-score
1,GTAACGGA,-0.0515
2,GTAAGGAC,0.0623
3,ACAGGACG,-0.26
4,GTTTAAAC,0.159
5,AATACTAC,0.0915
6,ACGCTATC,-0.329
7,AGTAGACG,-0.06
8,GAAGTGTA,-0.0675
9,CCTCCGTC,-0.348
10,ATACTATC,-0.134
11,GCGTGCCA,-0.318
12,GATTCCAA,0.156
13,CCCAGGAC,-0.182
14,CGTGTAAG,0.173
15,TATGACCA,0.168
16,GCTCGTCA,0.00153
17,GGCTAACC,0.149
18,GAAGAAAC,-0.0572
19,CTAATGTA,-0.0853
20,AAACTAAA,0.0515
21,ACAGCTAC,-0.106
22,TAACCACA,0.169
